The test system of experiment [1] is A549. The experiment can be described thus: mean average precision of replicate retrieval against DMSO controls (Cell Painting phenotypic activity) (fraction (0-1)); higher = stronger, more reproducible morphological phenotype distinct from DMSO; extreme values may be limits of the assay. As to conditions: 5 µM.
For experiment [2], the system named is U2OS. Described as above. As to conditions: 5 µM.

The results in this text go back to the supplement of paper PMC11166567.

Each structure is given as a SMILES string. Some of the results follow.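 How the source made its calls: active = permutation test q below 0.05 after Benjamini-Hochberg correction; inactive = q of 0.05 or more.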
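Further: cosine similarity of well-level aggregated Cell Painting profiles ranks each compound's replicate wells against DMSO wells, four replicate plates, significance from 100,000 rank shuffles.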

On to `Cc1ccc(C(=O)Nc2ccc(CN3CCN(C)CC3)c(C(F)(F)F)c2)cc1C#Cc1cnc2cccnn12`, for which the mean average precision in experiment [1] (24 h), in experiment [1] (48 h), in experiment [2] (24 h) and in experiment [2] (48 h) was active: 1 each time.

`CC(C)[C@H](CO)Nc1nc(Nc2cccc(Cl)c2)c2ncn(C(C)C)c2n1`: the mean average precision in experiment [1] (24 h), in experiment [1] (48 h), in experiment [2] (24 h) and in experiment [2] (48 h) was active: 1 in each case.

Consider `COCCN1CCN(Cc2ccc(-c3n[nH]c4c3C(=O)c3c(NC(=O)NN5CCOCC5)cccc3-4)cc2)CC1`, for which the mean average precision in experiment [1] (24 h), in experiment [1] (48 h), in experiment [2] (24 h) and in experiment [2] (48 h) was active: 1 each time.

Turning to `CC(C)C(=O)c1ccc(O)c(O)c1`, the mean average precision in experiment [1] (24 h) is active: 0.728; in experiment [1] (48 h) it was active: 1; in experiment [2] (24 h), active: 0.475; in experiment [2] (48 h) it was inactive: 0.235.

For the compound `O=C(O)c1ccccc1O`, the mean average precision in experiment [1] (24 h) was active: 0.379; in experiment [1] (48 h), active: 0.531; in experiment [2] (24 h), active: 0.844; in experiment [2] (48 h), inactive: 0.176.

Take `O=C(NCCS(=O)(=O)c1ccc(C(F)(F)F)cn1)c1ccc(Cl)cc1`: the mean average precision in experiment [1] (24 h) was active: 0.428; in experiment [1] (48 h), active: 0.452; in experiment [2] (24 h) it was active: 0.314; in experiment [2] (48 h), active: 0.332.

On to `O=C1OC(c2ccc(O)cc2)(c2ccc(O)cc2)c2ccccc21`, for which the mean average precision in experiment [1] (24 h) was inactive: 0.232; in experiment [1] (48 h), inactive: 0.281; in experiment [2] (24 h) it was active: 0.917; in experiment [2] (48 h), inactive: 0.166.

Consider `CC1=CC(=O)c2ccccc2C1=O`, for which the mean average precision was active: 0.642 in experiment [1] (24 h), active: 1 in experiment [1] (48 h), active: 1 in experiment [2] (24 h) and active: 1 in experiment [2] (48 h).

Regarding `CCCOc1ccccc1-c1nc2n[nH]nc2c(=O)[nH]1`, the mean average precision is inactive: 0.232 in experiment [1] (24 h), active: 0.829 in experiment [1] (48 h), active: 0.551 in experiment [2] (24 h) and active: 0.353 in experiment [2] (48 h).

`Clc1ccc(COC(Cn2ccnc2)c2ccc(Cl)cc2Cl)c(Cl)c1` (stereo not given): the mean average precision in experiment [1] (24 h) was active: 0.481; in experiment [1] (48 h), active: 0.794; in experiment [2] (24 h), active: 0.847; in experiment [2] (48 h), active: 0.702.
